Test results taken from the supplement of paper PMC7125110.
± gives the standard error. Variants at the background level are over-represented here.

B1: glmS ribozyme (parent)
chain: AUAAAAGCGCCAGAACUACAGAAAUGUAGUUGACGAGGAGGAGGUUUAUCGAAUUUUCGGCGGAUGCCUCCAAA

Experiments:
Conditions in all cases: with glucosamine-6-phosphate
glucosamine-6-phosphate [1] = variants of: B1; test: self-cleavage kobs at 640 uM GlcN6P; higher = faster cleavage; RNA array
Method in brief: (§1)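 In situ transcription by E. coli RNA polymerase produced barcoded ribozyme variants on sequenced MiSeq chips, and a hybridised Cy3 probe tracked them at 37 °C. Glucosamine-6-phosphate was flowed in at 40 μM to 10 mM in HEPES/KCl/Mg(OAc)2 buffer. kcat and KM were taken from weighted Michaelis–Menten fits of kobs values from exponential decay fits.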

glucosamine-6-phosphate [2] = variants of: B1; test: self-cleavage kobs at 2500 uM GlcN6P; higher = faster cleavage; RNA array
Method in brief: as §1

glucosamine-6-phosphate [3] = variants of: B1; test: self-cleavage kobs at 160 uM GlcN6P; higher = faster cleavage; RNA array
Method in brief: as §1

glucosamine-6-phosphate [4] = variants of: B1; test: self-cleavage kobs at 10000 uM GlcN6P; higher = faster cleavage; RNA array
Method in brief: as §1

G7U A15C U65G
self-cleavage kobs at 640 uM GlcN6P (glucosamine-6-phosphate [1]): < 1e-05 s⁻¹

A6C U69G
self-cleavage kobs at 640 uM GlcN6P (glucosamine-6-phosphate [1]): 0.000265 ± 0.00011 s⁻¹

A6G G35C A39U
self-cleavage kobs at 640 uM GlcN6P (glucosamine-6-phosphate [1]): < 1e-05 s⁻¹ | self-cleavage kobs at 2500 uM GlcN6P (glucosamine-6-phosphate [2]): < 1e-05 s⁻¹

A6U U45G C67A
self-cleavage kobs at 640 uM GlcN6P (glucosamine-6-phosphate [1]): < 1e-05 s⁻¹ | self-cleavage kobs at 160 uM GlcN6P (glucosamine-6-phosphate [3]): < 1e-05 s⁻¹

G7C A14U C16A G32A
self-cleavage kobs at 640 uM GlcN6P (glucosamine-6-phosphate [1]): < 1e-05 s⁻¹ | self-cleavage kobs at 160 uM GlcN6P (glucosamine-6-phosphate [3]): < 1e-05 s⁻¹

A6G C16A A52C
self-cleavage kobs at 640 uM GlcN6P (glucosamine-6-phosphate [1]): < 1e-05 s⁻¹ | self-cleavage kobs at 2500 uM GlcN6P (glucosamine-6-phosphate [2]): < 1e-05 s⁻¹

A6G G7A A12U U30C A33C C34U
self-cleavage kobs at 640 uM GlcN6P (glucosamine-6-phosphate [1]): < 1e-05 s⁻¹

G7C U69C
self-cleavage kobs at 640 uM GlcN6P (glucosamine-6-phosphate [1]): < 1e-05 s⁻¹ | self-cleavage kobs at 160 uM GlcN6P (glucosamine-6-phosphate [3]): < 1e-05 s⁻¹ | self-cleavage kobs at 2500 uM GlcN6P (glucosamine-6-phosphate [2]): < 1e-05 s⁻¹ | self-cleavage kobs at 10000 uM GlcN6P (glucosamine-6-phosphate [4]): < 1e-05 s⁻¹

G7C G26U G37C
self-cleavage kobs at 640 uM GlcN6P (glucosamine-6-phosphate [1]): < 1e-05 s⁻¹

G7A C71A
self-cleavage kobs at 640 uM GlcN6P (glucosamine-6-phosphate [1]): < 1e-05 s⁻¹ | self-cleavage kobs at 2500 uM GlcN6P (glucosamine-6-phosphate [2]): < 1e-05 s⁻¹

A6U A14C G51C
self-cleavage kobs at 640 uM GlcN6P (glucosamine-6-phosphate [1]): < 1e-05 s⁻¹ | self-cleavage kobs at 2500 uM GlcN6P (glucosamine-6-phosphate [2]): < 1e-05 s⁻¹

G7C G29C U30C A39C G51U C70G
self-cleavage kobs at 640 uM GlcN6P (glucosamine-6-phosphate [1]): < 1e-05 s⁻¹

G7U A33U G35A
self-cleavage kobs at 640 uM GlcN6P (glucosamine-6-phosphate [1]): < 1e-05 s⁻¹ | self-cleavage kobs at 2500 uM GlcN6P (glucosamine-6-phosphate [2]): < 1e-05 s⁻¹

G7A G35U G51C
self-cleavage kobs at 640 uM GlcN6P (glucosamine-6-phosphate [1]): < 1e-05 s⁻¹ | self-cleavage kobs at 10000 uM GlcN6P (glucosamine-6-phosphate [4]): < 1e-05 s⁻¹

A6G G7A G13U A15C C68A C70A
self-cleavage kobs at 640 uM GlcN6P (glucosamine-6-phosphate [1]): < 1e-05 s⁻¹

A6C U45C
self-cleavage kobs at 640 uM GlcN6P (glucosamine-6-phosphate [1]): < 1e-05 s⁻¹

G7A U31C G41U G63U
self-cleavage kobs at 640 uM GlcN6P (glucosamine-6-phosphate [1]): < 1e-05 s⁻¹ | self-cleavage kobs at 160 uM GlcN6P (glucosamine-6-phosphate [3]): < 1e-05 s⁻¹

A6C G38A G41U
self-cleavage kobs at 640 uM GlcN6P (glucosamine-6-phosphate [1]): < 1e-05 s⁻¹ | self-cleavage kobs at 160 uM GlcN6P (glucosamine-6-phosphate [3]): < 1e-05 s⁻¹ | self-cleavage kobs at 2500 uM GlcN6P (glucosamine-6-phosphate [2]): < 1e-05 s⁻¹

A6G U45C A48G
self-cleavage kobs at 640 uM GlcN6P (glucosamine-6-phosphate [1]): < 1e-05 s⁻¹ | self-cleavage kobs at 160 uM GlcN6P (glucosamine-6-phosphate [3]): < 1e-05 s⁻¹ | self-cleavage kobs at 2500 uM GlcN6P (glucosamine-6-phosphate [2]): < 1e-05 s⁻¹

A6G G41A U46G C67U
self-cleavage kobs at 640 uM GlcN6P (glucosamine-6-phosphate [1]): < 1e-05 s⁻¹ | self-cleavage kobs at 2500 uM GlcN6P (glucosamine-6-phosphate [2]): < 1e-05 s⁻¹ | self-cleavage kobs at 10000 uM GlcN6P (glucosamine-6-phosphate [4]): < 1e-05 s⁻¹

A6U G35U C67A
self-cleavage kobs at 640 uM GlcN6P (glucosamine-6-phosphate [1]): < 1e-05 s⁻¹ | self-cleavage kobs at 160 uM GlcN6P (glucosamine-6-phosphate [3]): < 1e-05 s⁻¹ | self-cleavage kobs at 2500 uM GlcN6P (glucosamine-6-phosphate [2]): < 1e-05 s⁻¹

G7A C8A U65C
self-cleavage kobs at 640 uM GlcN6P (glucosamine-6-phosphate [1]): < 1e-05 s⁻¹ | self-cleavage kobs at 2500 uM GlcN6P (glucosamine-6-phosphate [2]): < 1e-05 s⁻¹

A6G G29C A33U G59C
self-cleavage kobs at 640 uM GlcN6P (glucosamine-6-phosphate [1]): < 1e-05 s⁻¹ | self-cleavage kobs at 160 uM GlcN6P (glucosamine-6-phosphate [3]): < 1e-05 s⁻¹ | self-cleavage kobs at 2500 uM GlcN6P (glucosamine-6-phosphate [2]): < 1e-05 s⁻¹

A6G A12G A36C U46G
self-cleavage kobs at 640 uM GlcN6P (glucosamine-6-phosphate [1]): < 1e-05 s⁻¹

A6U G13C C71U
self-cleavage kobs at 640 uM GlcN6P (glucosamine-6-phosphate [1]): < 1e-05 s⁻¹ | self-cleavage kobs at 160 uM GlcN6P (glucosamine-6-phosphate [3]): < 1e-05 s⁻¹ | self-cleavage kobs at 2500 uM GlcN6P (glucosamine-6-phosphate [2]): < 1e-05 s⁻¹

G7C U47A
self-cleavage kobs at 640 uM GlcN6P (glucosamine-6-phosphate [1]): < 1e-05 s⁻¹ | self-cleavage kobs at 160 uM GlcN6P (glucosamine-6-phosphate [3]): < 1e-05 s⁻¹ | self-cleavage kobs at 10000 uM GlcN6P (glucosamine-6-phosphate [4]): < 1e-05 s⁻¹

G7C A14G G41U A64G
self-cleavage kobs at 640 uM GlcN6P (glucosamine-6-phosphate [1]): < 1e-05 s⁻¹ | self-cleavage kobs at 2500 uM GlcN6P (glucosamine-6-phosphate [2]): < 1e-05 s⁻¹

G7A C34U G43U U57C C71U
self-cleavage kobs at 640 uM GlcN6P (glucosamine-6-phosphate [1]): < 1e-05 s⁻¹

A6C G7C A15U
self-cleavage kobs at 640 uM GlcN6P (glucosamine-6-phosphate [1]): < 1e-05 s⁻¹ | self-cleavage kobs at 160 uM GlcN6P (glucosamine-6-phosphate [3]): < 1e-05 s⁻¹ | self-cleavage kobs at 2500 uM GlcN6P (glucosamine-6-phosphate [2]): < 1e-05 s⁻¹
